# Reference: publication PMC12820563, “FoxP3 forms a head-to-head dimer in vivo and stabilizes its multimerization on adjacent microsatellites”
# This is one part of the list.
# Molecular target: T1, MBP-FoxP1dN (Mus musculus, UniProt P58462 326-579)
# T1 sequence: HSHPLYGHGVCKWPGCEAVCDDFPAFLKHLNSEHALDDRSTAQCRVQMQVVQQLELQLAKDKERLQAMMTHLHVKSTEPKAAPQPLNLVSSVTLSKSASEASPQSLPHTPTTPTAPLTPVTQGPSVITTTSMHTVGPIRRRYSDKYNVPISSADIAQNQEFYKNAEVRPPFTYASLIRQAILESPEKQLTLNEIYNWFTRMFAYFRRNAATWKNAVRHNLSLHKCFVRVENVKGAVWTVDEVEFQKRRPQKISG
# Test: PD-seq (MBP pull-down with sequencing); 20 mM Tris-HCl pH 7.5, 100 mM NaCl, 1.5 mM MgCl2, 0.4 uM protein, 0.1 uM dsDNA library, 30 min, room temperature, amylose pull-down; high values mean tight binding
# Conditions: protein: recombinant; tags: His6-MBP; chain copies: 2; dsDNA, one strand shown
# In short: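 Binding is given as reads-per-million enrichment, pull-down over input, with replicates pooled. The bait was an N-terminus-lacking mouse FoxP3 or FoxP1 fragment with a His6-MBP tag, expressed in E. coli and used at 0.4 µM with 0.1 µM Klenow-filled degenerate double-stranded DNA library for 30 min at room temperature in Tris pH 7.5 buffer with NaCl and MgCl2. Amylose resin pull-down with three washes was followed by proteinase K release, PCR barcoding and Illumina sequencing.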
row,Sequence,binding signal
1,GATGATTGTTCTCCCAGCTGATGAATTTGGGCCCTCGAGTAAACAAATTTTCCTAATCTTTCTGTTCAAGCGCCATCTAC,0.765 RPM ratio (pull-down/input)
2,GATGATTGTTCTCCCAGCTGATGAATTATGCTTCTCGAGTAAACAAATTTTCCTAATCTTTCTGTTCAAGCGCCATCTAC,1.08 RPM ratio (pull-down/input)
3,GATGATTGTTCTCCCAGCTGATGAATTCGGATTGTCGAGTAAACAAATTTTCCTAATCTTTCTGTTCAAGCGCCATCTAC,0.938 RPM ratio (pull-down/input)
4,GATGATTGTTCTCCCAGCTGATGAATTAACCTTCTCGAGTAAACAAATTTTCCTAATCTTTCTGTTCAAGCGCCATCTAC,0.828 RPM ratio (pull-down/input)
5,GATGATTGTTCTCCCAGCTGATGAATTCTCGAGGTCGAGTAAACAAATTTTCCTAATCTTTCTGTTCAAGCGCCATCTAC,0.777 RPM ratio (pull-down/input)
6,GATGATTGTTCTCCCAGCTGATGAATTCATCGGGTCGAGTAAACAAATTTTCCTAATCTTTCTGTTCAAGCGCCATCTAC,0.795 RPM ratio (pull-down/input)
7,GATGATTGTTCTCCCAGCTGATGAATTCCGCTTATCGAGTAAACAAATTTTCCTAATCTTTCTGTTCAAGCGCCATCTAC,0.95 RPM ratio (pull-down/input)
8,GATGATTGTTCTCCCAGCTGATGAATTTGAACGATCGAGTAAACAAATTTTCCTAATCTTTCTGTTCAAGCGCCATCTAC,0.846 RPM ratio (pull-down/input)
9,GATGATTGTTCTCCCAGCTGATGAATTGGTTAGCTCGAGTAAACAAATTTTCCTAATCTTTCTGTTCAAGCGCCATCTAC,0.936 RPM ratio (pull-down/input)
10,GATGATTGTTCTCCCAGCTGATGAATTTCGCGCTTCGAGTAAACAAATTTTCCTAATCTTTCTGTTCAAGCGCCATCTAC,0.904 RPM ratio (pull-down/input)
11,GATGATTGTTCTCCCAGCTGATGAATTTATGAGGTCGAGTAAACAAATTTTCCTAATCTTTCTGTTCAAGCGCCATCTAC,0.982 RPM ratio (pull-down/input)
12,GATGATTGTTCTCCCAGCTGATGAATTATTGGAGTCGAGTAAACAAATTTTCCTAATCTTTCTGTTCAAGCGCCATCTAC,0.967 RPM ratio (pull-down/input)
13,GATGATTGTTCTCCCAGCTGATGAATTTTCTCCCTCGAGTAAACAAATTTTCCTAATCTTTCTGTTCAAGCGCCATCTAC,0.95 RPM ratio (pull-down/input)
14,GATGATTGTTCTCCCAGCTGATGAATTTGTTGGCTCGAGTAAACAAATTTTCCTAATCTTTCTGTTCAAGCGCCATCTAC,1.37 RPM ratio (pull-down/input)
15,GATGATTGTTCTCCCAGCTGATGAATTACAGCCGTCGAGTAAACAAATTTTCCTAATCTTTCTGTTCAAGCGCCATCTAC,0.952 RPM ratio (pull-down/input)
16,GATGATTGTTCTCCCAGCTGATGAATTAGCACATTCGAGTAAACAAATTTTCCTAATCTTTCTGTTCAAGCGCCATCTAC,1.03 RPM ratio (pull-down/input)
17,GATGATTGTTCTCCCAGCTGATGAATTCCACTCATCGAGTAAACAAATTTTCCTAATCTTTCTGTTCAAGCGCCATCTAC,0.808 RPM ratio (pull-down/input)
18,GATGATTGTTCTCCCAGCTGATGAATTCCGCTCCTCGAGTAAACAAATTTTCCTAATCTTTCTGTTCAAGCGCCATCTAC,0.766 RPM ratio (pull-down/input)
19,GATGATTGTTCTCCCAGCTGATGAATTGGCCCGTTCGAGTAAACAAATTTTCCTAATCTTTCTGTTCAAGCGCCATCTAC,0.858 RPM ratio (pull-down/input)
20,GATGATTGTTCTCCCAGCTGATGAATTCAGGTGGTCGAGTAAACAAATTTTCCTAATCTTTCTGTTCAAGCGCCATCTAC,0.776 RPM ratio (pull-down/input)

row,Sequence,binding signal
1,GATGATTGTTCTCCCAGCTGATGAATTCTTTCTCTCGAGTAAACAAATTTTCCTAATCTTTCTGTTCAAGCGCCATCTAC,0.826 RPM ratio (pull-down/input)
2,GATGATTGTTCTCCCAGCTGATGAATTTGTGGAATCGAGTAAACAAATTTTCCTAATCTTTCTGTTCAAGCGCCATCTAC,1.1 RPM ratio (pull-down/input)
3,GATGATTGTTCTCCCAGCTGATGAATTGACAACGTCGAGTAAACAAATTTTCCTAATCTTTCTGTTCAAGCGCCATCTAC,1.31 RPM ratio (pull-down/input)
4,GATGATTGTTCTCCCAGCTGATGAATTTGGCACGTCGAGTAAACAAATTTTCCTAATCTTTCTGTTCAAGCGCCATCTAC,0.875 RPM ratio (pull-down/input)
5,GATGATTGTTCTCCCAGCTGATGAATTAATTACGTCGAGTAAACAAATTTTCCTAATCTTTCTGTTCAAGCGCCATCTAC,1.22 RPM ratio (pull-down/input)
6,GATGATTGTTCTCCCAGCTGATGAATTATGAGGATCGAGTAAACAAATTTTCCTAATCTTTCTGTTCAAGCGCCATCTAC,0.907 RPM ratio (pull-down/input)
7,GATGATTGTTCTCCCAGCTGATGAATTTGTGACTTCGAGTAAACAAATTTTCCTAATCTTTCTGTTCAAGCGCCATCTAC,1.21 RPM ratio (pull-down/input)
8,GATGATTGTTCTCCCAGCTGATGAATTGCATGACTCGAGTAAACAAATTTTCCTAATCTTTCTGTTCAAGCGCCATCTAC,1.02 RPM ratio (pull-down/input)
9,GATGATTGTTCTCCCAGCTGATGAATTCGCAAAATCGAGTAAACAAATTTTCCTAATCTTTCTGTTCAAGCGCCATCTAC,1.05 RPM ratio (pull-down/input)
10,GATGATTGTTCTCCCAGCTGATGAATTGGAGACGTCGAGTAAACAAATTTTCCTAATCTTTCTGTTCAAGCGCCATCTAC,0.824 RPM ratio (pull-down/input)
11,GATGATTGTTCTCCCAGCTGATGAATTCAGGGCTTCGAGTAAACAAATTTTCCTAATCTTTCTGTTCAAGCGCCATCTAC,0.881 RPM ratio (pull-down/input)
12,GATGATTGTTCTCCCAGCTGATGAATTCTAGGATTCGAGTAAACAAATTTTCCTAATCTTTCTGTTCAAGCGCCATCTAC,0.75 RPM ratio (pull-down/input)
13,GATGATTGTTCTCCCAGCTGATGAATTCTTCGTTTCGAGTAAACAAATTTTCCTAATCTTTCTGTTCAAGCGCCATCTAC,0.946 RPM ratio (pull-down/input)
14,GATGATTGTTCTCCCAGCTGATGAATTTGCCAACTCGAGTAAACAAATTTTCCTAATCTTTCTGTTCAAGCGCCATCTAC,0.884 RPM ratio (pull-down/input)
15,GATGATTGTTCTCCCAGCTGATGAATTTAGTAGTTCGAGTAAACAAATTTTCCTAATCTTTCTGTTCAAGCGCCATCTAC,1.03 RPM ratio (pull-down/input)
16,GATGATTGTTCTCCCAGCTGATGAATTCAAAAATTCGAGTAAACAAATTTTCCTAATCTTTCTGTTCAAGCGCCATCTAC,1 RPM ratio (pull-down/input)
17,GATGATTGTTCTCCCAGCTGATGAATTTGGTGCTTCGAGTAAACAAATTTTCCTAATCTTTCTGTTCAAGCGCCATCTAC,0.889 RPM ratio (pull-down/input)
18,GATGATTGTTCTCCCAGCTGATGAATTCCGCAACTCGAGTAAACAAATTTTCCTAATCTTTCTGTTCAAGCGCCATCTAC,0.989 RPM ratio (pull-down/input)
19,GATGATTGTTCTCCCAGCTGATGAATTCGTCTAGTCGAGTAAACAAATTTTCCTAATCTTTCTGTTCAAGCGCCATCTAC,0.845 RPM ratio (pull-down/input)
20,GATGATTGTTCTCCCAGCTGATGAATTCCAGATGTCGAGTAAACAAATTTTCCTAATCTTTCTGTTCAAGCGCCATCTAC,0.807 RPM ratio (pull-down/input)
